Whole data set: some 1,000 compounds, median “relative growth in counter assay (no AraC = 100%, AraC + DMSO = 0%)” near -1.1, cut for the highest 2% near 20. This is one part of the list.
test system: HEK293FT dCK*-only; assay: relative growth in counter assay (no AraC = 100%, AraC + DMSO = 0%); higher = more growth rescue independent of IKZF1; details: compound concentration: 5 uM; AraC concentration: 0.3 uM; overnight pretreatment + 4 days AraC
Description: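 Growth recovery screen of the molecular-glue-like (Specs) library. HEK293FT cells expressing a dCK*-IKZF1 fusion (primary) or dCK* alone (counter) were pretreated overnight with compound at 5 uM, then given 0.3 uM AraC for 4 days. Hoechst nuclei were counted by imaging. Primary: normalised to pomalidomide (100%) and DMSO (0%), mean of 2 replicates. Counter: normalised to no-AraC (100%) and AraC+DMSO (0%), single replicate.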

First: CCOc1ccc(C(=O)Nc2ccc(S(=O)(=O)Nc3nccc(C)n3)cc2)cc1OCC
Second: COc1ccc(C(=O)Nc2ccc(S(=O)(=O)Nc3nccc(C)n3)cc2)cc1[N+](=O)[O-]
The “relative growth in counter assay” value of the first is higher: -1.48% for the first, -4.03% for the second.

Compared with `CC(C)c1cnc(Nc2cccc(C3CN(C(=O)C4CCCCC4)CCO3)n2)s1` (centres undefined), `Cc1cnc(Nc2cccc(CC3CCN(C(=O)C4CCCCC4)CC3)n2)s1` is lower in “relative growth in counter assay” value: 3.17% for the first, -6.51% for the second.

Going from `Cc1ccc(C(C)C)c(OCC(=O)Nc2ccc(S(=O)(=O)Nc3ccccn3)cc2)c1` to `CC(C)c1cccc(OCC(=O)Nc2ccc(S(=O)(=O)Nc3ccccn3)cc2)c1`, the “relative growth in counter assay” value rises from -4.72% to 1.61%.

Going from `COc1cc(NS(=O)(=O)c2ccc(Nc3nc(-c4ccc(C)c(C)c4)cs3)cc2)nc(OC)n1` to `COc1cc(NS(=O)(=O)c2ccc(Nc3nc(-c4ccccc4)cs3)cc2)nc(OC)n1`, the “relative growth in counter assay” value falls from 4.93% to -18.6%.

First: COc1ccc(N2C(=O)c3ccc(Oc4ccccc4)cc3C2=O)cc1
Second: CCOC(=O)c1ccc(N2C(=O)c3ccc(Oc4cccc(N)c4)cc3C2=O)cc1
The “relative growth in counter assay” value of the first is lower: -22.4% for the first, -0.53% for the second.

Going from `Cc1ccc(S(=O)(=O)CC(=O)Nc2ccc(S(=O)(=O)Nc3ncccn3)cc2)cc1` to `O=C(CS(=O)(=O)c1ccccc1)Nc1ccc(S(=O)(=O)Nc2ncccn2)cc1`, the “relative growth in counter assay” value rises from 2.98% to 8.67%.

Compared with `CC(C)Cc1nc2ccccc2n1CC(=O)N1CCC(Cc2cccc(Nc3nccs3)n2)CC1`, `CNC(=O)C1(c2cccc(Nc3ncc(C)s3)n2)CN(C(=O)Cn2c(CC(C)C)nc3ccccc32)CCO1` (centres undefined) is lower in “relative growth in counter assay” value: 3.92% for the first, 0.83% for the second.

Going from `Cc1cnc(Nc2cccc(C3CCCN3CC(N)=O)n2)s1` (centres undefined) to `Cc1cnc(Nc2cccc(C3CCCN3C(=O)CCOc3ccccc3C)n2)s1` (centres undefined), the “relative growth in counter assay” value rises from -25.2% to -3.51%.

First: CC(=O)Nc1ccc(S(=O)(=O)N(Cc2ccccc2)c2ccccn2)cc1
Second: O=C(CCc1ccccc1)Nc1ccc(S(=O)(=O)Nc2ccccn2)cc1
The “relative growth in counter assay” value of the first is higher: 21% for the first, 1.91% for the second.

Compared with `COc1cccc(OC)c1C(=O)Nc1ccc(S(=O)(=O)Nc2ncccn2)cc1`, `COc1cccc(OC)c1C(=O)Nc1ccc(S(=O)(=O)Nc2cc(C)nc(C)n2)cc1` is higher in “relative growth in counter assay” value: -5.57% for the first, 6.06% for the second.

Going from `Cc1cnc(Nc2cccc(C3CCN(C(=O)C4(NC(=O)CC(C)C)CCCCC4)CC3)n2)s1` to `Cc1cnc(Nc2cccc(C(CO)C3CCN(C(=O)C4(NC(=O)OC(C)(C)C)CCCCC4)CC3)n2)s1` (centres undefined), the “relative growth in counter assay” value rises from -23.1% to 0.59%.

First: O=C1CCC(N2C(=O)c3ccc(N4CCC(C(=O)O)CC4)cc3C2=O)C(=O)N1 (centres undefined)
Second: CN(CCN1CCC(C(=O)O)CC1)c1cccc2c1C(=O)N(C1CCC(=O)NC1=O)C2=O (centres undefined)
The “relative growth in counter assay” value of the first is lower: 0.27% for the first, 2.03% for the second.

Compared with `Cc1ccc(C(=O)Nc2ccc(S(=O)(=O)Nc3nc(C)cc(C)n3)cc2)cc1`, `CCCOc1ccc(C(=O)Nc2ccc(S(=O)(=O)Nc3nc(C)cc(C)n3)cc2)cc1` is higher in “relative growth in counter assay” value: -6.33% for the first, 5.24% for the second.

Compared with `Cc1cc(C)nc(NS(=O)(=O)c2ccc(NC(=O)Nc3ccccc3)cc2)n1`, `Cc1cc(C)nc(NS(=O)(=O)c2ccc(NC(=O)c3oc4ccccc4c3C)cc2)n1` is lower in “relative growth in counter assay” value: 2.55% for the first, -5.96% for the second.

Compared with `Cc1csc(Nc2cccc(C3CCCN3C(=O)CCOc3ccccc3C)n2)n1` (centres undefined), `Cc1nc(Nc2cccc(C3CCCN3C(=O)CN3CCc4ccccc4C3)n2)sc1C` (centres undefined) is lower in “relative growth in counter assay” value: 19.2% for the first, 0.56% for the second.

Going from `Cc1cnc(Nc2cccc(C3CN(C(=O)Cc4ccccc4)CCO3)n2)s1` (centres undefined) to `Cc1cnc(Nc2cccc(C3CN(C(=O)CCc4ccccc4)CCO3)n2)s1` (centres undefined), the “relative growth in counter assay” value rises from -5.45% to 7.87%.

Compared with `O=C(Nc1ccc(S(=O)(=O)Nc2ncccn2)cc1)c1cc(Cl)ccc1Cl`, `O=C(Nc1ccc(S(=O)(=O)Nc2ncccn2)cc1)c1ccc(Br)cc1` is lower in “relative growth in counter assay” value: 1.91% for the first, 1.1% for the second.

Going from `Cc1cc(C)nc(NS(=O)(=O)c2ccc(Nc3nc(-c4cccnc4)cs3)cc2)n1` to `Cc1cc(C)nc(NS(=O)(=O)c2ccc(NC(=O)c3ccc(Cl)cc3Cl)cc2)n1`, the “relative growth in counter assay” value falls from 0.46% to -1.97%.

First: Cc1csc(Nc2cccc(C3CCN(C(=O)c4cnccn4)CC3)n2)n1
Second: Cc1csc(Nc2cccc(C3CCN(CC(=O)N4CCC(C(N)=O)CC4)CC3)n2)n1
The “relative growth in counter assay” value of the first is higher: 0.29% for the first, -0.8% for the second.

First: C=CCc1cccc(CNc2ccc(S(=O)(=O)Nc3nccnc3OC)cc2)c1O
Second: COc1ccc(/C=C/C(=O)NC(=S)Nc2ccc(S(=O)(=O)Nc3nccnc3OC)cc2)cc1OC
The “relative growth in counter assay” value of the first is higher: -1% for the first, -22.9% for the second.

Compared with `Cc1cccc(OCC(=O)Nc2ccc(S(=O)(=O)Nc3cc(C)nc(C)n3)cc2)c1`, `COc1ccc(OCCCC(=O)Nc2ccc(S(=O)(=O)Nc3cc(C)nc(C)n3)cc2)cc1` is higher in “relative growth in counter assay” value: -3.57% for the first, -0.26% for the second.

Compared with `Cc1cc(C)cc(OCC(=O)Nc2ccc(S(=O)(=O)Nc3ncccn3)cc2)c1`, `CCCC(=O)Nc1ccc(S(=O)(=O)Nc2ncccn2)cc1` is lower in “relative growth in counter assay” value: -3.47% for the first, -4.52% for the second.

Going from `O=C(CSc1nnc2c(n1)[nH]c1ccc(Cl)cc12)Nc1ccc(Cl)cc1` to `Cc1cc(C)c2[nH]c3nc(SCC(=O)Nc4ccc(F)cc4)nnc3c2c1`, the “relative growth in counter assay” value falls from 3.64% to -10.1%.

First: CC(C)(C)OC(=O)N1CCOCC1C(=O)N1CCC(c2cccc(Nc3ncc(-c4ccccc4)s3)n2)CC1 (centres undefined)
Second: Cc1cnc(Nc2cccc(C3CCN(C(=O)[C@H]4CCCC[C@H]4NC(=O)OC(C)(C)C)CC3)n2)s1
The “relative growth in counter assay” value of the first is higher: 3.05% for the first, -9.49% for the second.

Going from `CCOCCC(=O)Nc1ccc(S(=O)(=O)Nc2ncccn2)cc1` to `CC(C)(C)CC(=O)Nc1ccc(S(=O)(=O)Nc2ncccn2)cc1`, the “relative growth in counter assay” value falls from 3.97% to -0.2%.

Compared with `Cc1ccnc(NS(=O)(=O)c2ccc(NC(=O)Cc3ccc(Cl)cc3)cc2)n1`, `Cc1ccnc(NS(=O)(=O)c2ccc(NC(=O)c3ccc(Cl)cc3[N+](=O)[O-])cc2)n1` is lower in “relative growth in counter assay” value: 4.12% for the first, -5.55% for the second.

Going from `Cc1cnc(Nc2cccc(C3CCN(C(=O)C4C5C=CC6(CN(C)C(=O)C46)O5)CC3)n2)s1` (centres undefined) to `Cc1cnc(Nc2cccc(C3CCN(C(=O)C4CC(=O)OC45CCCCC5)CC3)n2)s1` (centres undefined), the “relative growth in counter assay” value falls from 0.67% to -24.3%.

Going from `CCC(C(=O)Nc1ccc(S(=O)(=O)Nc2ncccn2)cc1)c1ccccc1` (centres undefined) to `O=C(Nc1ccc(S(=O)(=O)Nc2ncccn2)cc1)Oc1ccccc1`, the “relative growth in counter assay” value falls from 8.03% to -1.98%.

Going from `CCCC(=O)Nc1ccc(S(=O)(=O)Nc2cc(C)nc(C)n2)cc1` to `Cc1cc(NS(=O)(=O)c2ccc(NC(=O)C(C)C)cc2)nc(C)n1`, the “relative growth in counter assay” value falls from -0.75% to -9.51%.

Going from `O=C(CN1CCC(c2cccc(Nc3nccs3)n2)CC1)N1CCCc2ccccc21` to `O=C(CN1CCC(c2cccc(Nc3nccs3)n2)CC1)Nc1ccc(F)cc1`, the “relative growth in counter assay” value rises from -6.67% to 7.72%.

First: O=[N+]([O-])c1ccc(S(=O)(=O)Nc2ncccn2)cc1
Second: O=[N+]([O-])c1ccc(S(=O)(=O)Nc2ccc(S(=O)(=O)Nc3ncccn3)cc2)cc1
The “relative growth in counter assay” value of the first is lower: -0.85% for the first, 0.33% for the second.

First: CC(=O)N1CCCC1CCc1ccc(Nc2ncc(-c3ccc(F)cc3)s2)nc1 (centres undefined)
Second: CCOCc1ccc(C(=O)N2CCC(c3cccc(Nc4ncc(C)s4)n3)CC2)cc1
The “relative growth in counter assay” value of the first is lower: -14% for the first, 12.5% for the second.

Compared with `Cc1cnc(Nc2cccc(C3CN(C(=O)CN(C(=O)CC(C)C)c4ccccc4)CCO3)n2)s1` (centres undefined), `Cc1cnc(Nc2cccc(C3CN(C(=O)COc4ccccc4)CCO3)n2)s1` (centres undefined) is lower in “relative growth in counter assay” value: 9.59% for the first, -9.61% for the second.

Going from `Cc1cnc(Nc2cccc(C3CCN(C(=O)C45CC6CC(CC(O)(C6)C4)C5)CC3)n2)s1` to `Cc1cnc(Nc2cccc(C3CCN(C(=O)CC4CCCCC4)CC3)n2)s1`, the “relative growth in counter assay” value rises from -23.4% to -21.1%.

Compared with `Cn1nccc1/C=C/C(=O)N1CCCC1c1csc(Nc2ccccn2)n1` (centres undefined), `O=C(/C=C/c1ccccc1)N1CCC(c2csc(Nc3ccc(F)cn3)n2)CC1` is lower in “relative growth in counter assay” value: -0.93% for the first, -6.37% for the second.

First: CC(=O)Nc1ccc(-c2csc(Nc3ccccn3)n2)cc1
Second: Cc1cnc(Nc2cccc(C3CCN(CC(=O)NCc4ccccn4)CC3)n2)s1
The “relative growth in counter assay” value of the first is higher: 15.7% for the first, 0.12% for the second.

Going from `Cc1cc(C)c2[nH]c3nc(SCC(=O)Nc4cccc(Cl)c4)nnc3c2c1` to `Cc1cc(C)nc(NS(=O)(=O)c2ccc(NC(=O)Cn3cnc4ccccc4c3=O)cc2)n1`, the “relative growth in counter assay” value rises from -16.7% to -5.6%.

Compared with `COCC(=O)N1CCCC1c1cccc(Nc2nccs2)n1` (centres undefined), `Cc1nc(Nc2cccc(C3CCCN3C(=O)CCCN3C(=O)CNC3=O)n2)sc1C` (centres undefined) is higher in “relative growth in counter assay” value: -3.54% for the first, 6.76% for the second.

First: Cc1cnc(Nc2cccc(C3CCN(C(=O)CCn4ncc5ccccc54)CC3)n2)s1
Second: NC1(C(=O)N2CCC(c3cccc(Nc4ncc(Cl)s4)n3)CC2)CC1
The “relative growth in counter assay” value of the first is higher: 3.03% for the first, -24.3% for the second.

Compared with `COc1cc(NS(=O)(=O)c2ccc(NC(=S)NC(=O)/C=C/c3ccco3)cc2)nc(OC)n1`, `COc1ccc(/C=C/C(=O)Nc2ccc(S(=O)(=O)Nc3cc(C)nc(C)n3)cc2)cc1` is higher in “relative growth in counter assay” value: -4.41% for the first, 0.21% for the second.

First: O=C(/C=C/c1ccc(Cl)cc1)Nc1ccc(S(=O)(=O)Nc2ncccn2)cc1
Second: Nc1ccc(S(=O)(=O)Nc2nccc(/C=C/c3ccccc3F)n2)cc1
The “relative growth in counter assay” value of the first is lower: -21.9% for the first, -1.02% for the second.

Going from `O=C(O)CCOCCNc1cccc2c1C(=O)N(C1CCC(=O)NC1=O)C2=O` (centres undefined) to `Cc1ccc(OCCCC(=O)Nc2ccc(S(=O)(=O)Nc3nc(C)cc(C)n3)cc2)cc1`, the “relative growth in counter assay” value falls from -0.81% to -5.16%.

Compared with `COc1cccc(C(=O)N2CCOC(c3cccc(Nc4nc(C)c(C)s4)n3)C2)c1` (centres undefined), `CC(C)(C)C(=O)N1CCOC(c2cccc(Nc3ncc(-c4cccnc4)s3)n2)C1` (centres undefined) is higher in “relative growth in counter assay” value: 0.39% for the first, 4.19% for the second.

Going from `CCCCc1cnc(Nc2cccc(C3CCN(C(=O)[C@@H]4CCCCN4CCO)CC3)n2)s1` to `CCCc1cnc(Nc2cccc(C3(C(N)=O)CCN(C(=O)C4CCCCC4)CC3)n2)s1`, the “relative growth in counter assay” value rises from -19.1% to -17.3%.

First: COc1cc(NS(=O)(=O)c2ccc(Nc3nc(-c4sc(N)nc4C)cs3)cc2)nc(OC)n1
Second: CCS(=O)(=O)Nc1ccc(S(=O)(=O)Nc2nc(C)cc(C)n2)cc1
The “relative growth in counter assay” value of the first is lower: 4.3% for the first, 4.93% for the second.

Compared with `CN(CCC(=O)N1CCOC(c2cccc(Nc3nccs3)n2)C1)c1cccc(F)c1` (centres undefined), `CC(C)(C)C(=O)N1CCOC(c2cccc(Nc3ncc(Cc4ccccc4Cl)s3)n2)C1` (centres undefined) is higher in “relative growth in counter assay” value: 2.6% for the first, 3.6% for the second.

First: CCCOc1ccccc1C(=O)Nc1ccc(S(=O)(=O)Nc2nc(C)cc(C)n2)cc1
Second: CNC(=O)C(c1cccc(Nc2ncc(C)s2)n1)C1CCN(C(=O)[C@H](CC(C)C)NC(=O)OC(C)(C)C)CC1 (some centres undefined)
The “relative growth in counter assay” value of the first is lower: 2.83% for the first, 8.97% for the second.

— the supplement of paper PMC12340641
